From the supplement of paper PMC9174493
This is one part of the list. Single values of this set are uncertain. Values with irradiation are relative to irradiated vehicle.

What follows are compounds tested on A549-Dual (assay: NF-kB reporter (SEAP) activity, viability-corrected, relative to vehicle (fold change vs vehicle); higher = more activation of STING-IRF / NF-kB immune response reporter). Conditions: 10 µM; irradiation: 8 Gy/4 fr.
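Also: viability correction based on the alamar blue assay, with concentrations leaving 10% survival or less dropped.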

Structure (SMILES) | NF-kB reporter
Cc1cc(O)c2c(c1)C(=O)c1cc(O)cc(O)c1C2=O [Emodin] | 0.546
C1CCNC1 [Pyrrolidine] | 0.833
NC(=O)c1ccccc1O [Salicylamide] | 0.833
COc1cc2nc(N3CCN(C(=O)c4ccco4)CC3)nc(N)c2cc1OC.Cl [Prazosin HCl] | 1.06
O=[N+]([O-])c1ccc(O)cc1 [4-Nitrophenol] | 0.861
Nc1ccc(S(=O)(=O)Nc2ncccn2)cc1 [Sulfadiazine] | 0.629
CC1(C)SC2C(NC(=O)Cc3ccccc3)C(=O)N2C1C(=O)O.CC1(C)SC2C(NC(=O)Cc3ccccc3)C(=O)N2C1C(=O)O.c1ccc(CNCCNCc2ccccc2)cc1 (stereo not given) [Benzathine penicilline] | 0.66
CC(C)(C(=O)c1cccnc1)c1cccnc1 [Metyrapone] | 0.826
CCCCC(F)(F)C(=O)CCC1C(O)CC(=O)C1CCCCCCC(=O)O (stereo not given) [Lubiprostone] | 0.742
Cc1nc(C(=O)NCC(=O)O)c(O)c2ccc(Oc3ccccc3)cc12 [Roxadustat (FG-4592)] | 0.667
CN1CCN(CC(=O)N2c3ccccc3C(=O)Nc3cccnc32)CC1.Cl.Cl [Pirenzepine dihydrochloride] | 0.899
CN(Cc1ccc(C(C)(C)C)cc1)Cc1cccc2ccccc12.Cl [Butenafine HCl] | 0.423
O=CC(O)C(O)C(O)CO (stereo not given) [Xylose] | 0.791
CCCCCCOC(=O)N=C(N)c1ccc(NCc2nc3cc(C(=O)N(CCC(=O)OCC)c4ccccn4)ccc3n2C)cc1 [Dabigatran Etexilate] | 0.726
COc1cc2nc(N3CCN(C(=O)C4CCCO4)CC3)nc(N)c2cc1OC.Cl.O.O (stereo not given) [Terazosin HCl Dihydrate] | 0.855
O=S(=O)([O-])CCCS(=O)(=O)[O-].[Na+].[Na+] [Eprodisate disodium] | 0.788
COC(=O)C1=C(C)NC(C)=C(C(=O)OCCN2CCN(C(c3ccccc3)c3ccccc3)CC2)C1c1cccc([N+](=O)[O-])c1 (stereo not given) [Manidipine] | 0.76
Cc1nnc(SCC2=C(C(=O)[O-])N3C(=O)C(NC(=O)Cn4cnnn4)C3SC2)s1.[Na+] (stereo not given) [Cefazolin Sodium] | 0.909
CCN(CC)CCNC(C(=O)OCCC(C)C)c1ccccc1.Cl.Cl (stereo not given) [Camylofin Chlorhydrate] | 0.823
CCCCc1ncc(/C=C(\Cc2cccs2)C(=O)O)n1Cc1ccc(C(=O)O)cc1.CS(=O)(=O)O [Eprosartan Mesylate] | 1.15

Structure (SMILES) | NF-kB reporter
O=C(O)/C=C/c1ccc(O)cc1 [p-Coumaric Acid] | 0.798
COc1cc(CNC(=O)CCCC/C=C/C(C)C)ccc1O [Capsaicin(Vanilloid)] | 0.625
O=C(/C=C/c1ccc(O)c2c1C(C(=O)OC(Cc1ccc(O)c(O)c1)C(=O)O)C(c1ccc(O)c(O)c1)O2)OC(Cc1ccc(O)c(O)c1)C(=O)O (stereo not given) [Salvianolic acid B] | 0.75
CCCCCCCCCCC(=O)O [Undecanoic acid] | 0.771
CC1COc2c(N3CCN(C)CC3)c(F)cc3c(=O)c(C(=O)O)cn1c23 (stereo not given) [Levofloxacin hydrate] | 0.862
C[N+](C)(C)C[C@H](O)CC(=O)[O-] [L-carnitine] | 0.829
CCCCCCCC/C=C\CCCCCCCC(=O)OC [Methyl Oleate] | 0.637
CCOC(=O)C1=C(C)NC(C)=C(C(=O)OC)C1c1cccc([N+](=O)[O-])c1 (stereo not given) [Nitrendipine] | 0.941
O=C(O)CCCCC1SCC2NC(=O)NC21 (stereo not given) [Biotin (Vitamin B7)] | 1.32
COc1cc(NC(C)CCCN)c2ncccc2c1.O=P(O)(O)O.O=P(O)(O)O (stereo not given) [Primaquine Diphosphate] | 1.09
O=C(NC1CCN(CCCCC2(C(=O)NCC(F)(F)F)c3ccccc3-c3ccccc32)CC1)c1ccccc1-c1ccc(C(F)(F)F)cc1 [Lomitapide] | 0.844
CCN(CC)CCOCCOC(=O)C(CC)(CC)c1ccccc1.O=C(O)CC(O)(CC(=O)O)C(=O)O [Oxeladin Citrate] | 1.25
COC1OC(COS(=O)(=O)[O-])C(OC2OC(C(=O)[O-])C(OC3OC(COS(=O)(=O)[O-])C(OC4OC(C(=O)[O-])C(OC5OC(COS(=O)(=O)[O-])C(O)C(O)C5NS(=O)(=O)[O-])C(O)C4O)C(OS(=O)(=O)[O-])C3NS(=O)(=O)[O-])C(O)C2OS(=O)(=O)[O-])C(O)C1NS(=O)(=O)[O-].[Na+].[Na+].[Na+].[Na+].[Na+].[Na+].[Na+].[Na+].[Na+].[Na+] (stereo not given) [Fondaparinux Sodium] | 1.03
CNS(=O)(=O)Cc1ccc2[nH]cc(CCN(C)C)c2c1.O=C(O)CCC(=O)O [Sumatriptan Succinate] | 0.85
CC(C)(C(=O)O)c1ccc(C(O)CCCN2CCC(C(O)(c3ccccc3)c3ccccc3)CC2)cc1.Cl (stereo not given) [Fexofenadine HCl] | 0.522
CCCCCCCCCCCCN1CCCCCC1=O [Laurocapram] | 0.333
COc1ccc(OC)c(C(O)CNC(=O)CN)c1.Cl (stereo not given) [Midodrine hydrochloride] | 0.626
CC1OC(OC2C(O)C(OCCc3ccc(O)c(O)c3)OC(COC3OC(CO)C(O)C(O)C3O)C2OC(=O)/C=C/c2ccc(O)c(O)c2)C(O)C(O)C1O (stereo not given) [Echinacoside] | 0.97
O=C(O)CCCCCCCC(O)C(O)CCCCCCO (stereo not given) [Aleuritic Acid] | 0.795
O=C([O-])CCC(=O)OCC(NC(=O)C(Cl)Cl)C(O)c1ccc([N+](=O)[O-])cc1.[Na+] (stereo not given) [Chloramphenicol sodium succinate] | 0.726
